Experimental findings from the supplement of paper PMC4967469 are described below.

Compound in this test: CCc1nc(-c2cccc(C)c2)c(-c2ccnc(NC(=O)c3ccccc3)c2)s1 [TAK-715]
As to the kind of experiment: Viability of human cancer cell lines after 72 h of drug (GDSC screen). The conditions noted are these: top dose inferred. On the procedure: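 Human cancer cell lines in 384-well plates, medium with 10% serum, drug for 72 h over a 256-fold dose range (nine 2-fold or five 4-fold steps up to the top dose). Adherent lines were fixed and stained with the nucleic acid dye Syto60, suspension lines read with resazurin; signal relative to control wells, capped at 0 and 100%. One two-parameter sigmoid per drug and line, fitted in a mixed model over all curves with the slope shared within a line.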

A lower IC50 marks a more sensitive line; a limit (>, <) means that the fit lies beyond the doses tested. AUC sums up the same curve from the lowest dose to the 256-fold higher top dose; values near 1 show little effect. Any top dose called inferred is not printed in the source and was worked back from the curve model. A value given as a limit tells only on which side of the number the result lay.

Consider “ROS-50 (B-cell leukaemia, suspension, top dose 20 µM)”, for which the AUC stood at 0.882 and the IC50 (as a rule, the concentration needed to halve the response being measured) was greater than 20 µM.

For “RPMI-2650 (head and neck, adherent, top dose 20 µM)”, the AUC turned out to be 0.94 and the IC50 was greater than 20 µM.

With “RPMI-6666 (Hodgkin lymphoma, suspension, top dose 20 µM)”, the AUC turned out to be 0.797 and the IC50 worked out at 11.7 µM.

As for “RPMI-7951 (melanoma, adherent, top dose 20 µM)”, the AUC stood at 0.951 and the half-inhibitory concentration (IC50) was greater than 20 µM.

Take “RPMI-8226 (myeloma, suspension, top dose 20 µM)”: the AUC worked out at 0.912 and the half-maximal inhibitory concentration (IC50) was greater than 20 µM.

“RPMI-8402 (T-cell lymphoblastic leukaemia, suspension, top dose 20 µM)”: the AUC was 0.657 and the IC50 is 3.14 µM.

On to “RPMI-8866 (chronic myeloid leukaemia, suspension, top dose 20 µM)”, for which the AUC is 0.887 and the IC50 stood at 19.5 µM.

Regarding “RS4-11 (leukaemia, suspension, top dose 20 µM)”, the AUC was found to be 0.883 and the IC50 is 18.2 µM.

RT4 (bladder, adherent, top dose 20 µM): the AUC turned out to be 0.906 and the IC50 was greater than 20 µM.

Consider “RT-112 (bladder, adherent, top dose 20 µM)”, for which the AUC was 0.985 and the IC50 is greater than 20 µM.

As for “RVH-421 (melanoma, adherent, top dose 20 µM)”, the AUC came to 0.877 and the IC50 was greater than 20 µM.

Consider “RXF393 (kidney, adherent, top dose 20 µM)”, for which the AUC amounted to 0.948 and the IC50 is greater than 20 µM.

Turning to “Raji (Burkitt lymphoma, suspension, top dose 20 µM)”, the AUC came out at 0.957 and the IC50 is greater than 20 µM.

For “Ramos-2G6-4C10 (Burkitt lymphoma, suspension, top dose 20 µM)”, the AUC came to 0.898 and the IC50 is 18.6 µM.

For “SAS (head and neck, adherent, top dose 20 µM)”, the AUC came to 0.906 and the IC50 was greater than 20 µM.

In the case of “SAT (head and neck, adherent, top dose 20 µM)”, the AUC is 0.947 and the IC50 was greater than 20 µM.

Take “SBC-1 (small cell lung carcinoma, suspension, top dose 20 µM)”: the AUC was 0.978 and the IC50 was greater than 20 µM.

On to “SBC-3 (small cell lung carcinoma, adherent, top dose 20 µM)”, for which the AUC was 0.899 and the IC50 was greater than 20 µM.

“SBC-5 (small cell lung carcinoma, adherent, top dose 20 µM)”: the AUC came out at 0.979 and the IC50 was greater than 20 µM.

In the case of “SCC90 (head and neck, adherent, top dose 20 µM)”, the AUC worked out at 0.981 and the IC50 was greater than 20 µM.

As for “SCC-3 (B-cell lymphoma, suspension, top dose 20 µM)”, the AUC was found to be 0.938 and the IC50 came out at 17.8 µM.

As to “SCC-4 (head and neck, adherent, top dose 20 µM)”, the AUC is 0.982 and the IC50 is greater than 20 µM.

“SCC-9 (head and neck, adherent, top dose 20 µM)”: the AUC stood at 0.827 and the IC50 is 17 µM.

With “SCC-15 (head and neck, adherent, top dose 20 µM)”, the AUC stood at 0.947 and the IC50 was greater than 20 µM.

With “SCC-25 (head and neck, adherent, top dose 20 µM)”, the AUC came out at 0.85 and the IC50 was found to be 18.4 µM.

Take SCH (stomach, adherent, top dose 20 µM): the AUC was 0.965 and the IC50 was greater than 20 µM.

“SF126 (glioma, adherent, top dose 20 µM)”: the AUC amounted to 0.968 and the IC50 is greater than 20 µM.

Turning to “SF268 (glioma, adherent, top dose 20 µM)”, the AUC turned out to be 0.94 and the IC50 is greater than 20 µM.

As for “SF295 (glioma, adherent, top dose 20 µM)”, the AUC was found to be 0.954 and the IC50 was greater than 20 µM.

As for “SF539 (glioma, adherent, top dose 20 µM)”, the AUC amounted to 0.973 and the IC50 was greater than 20 µM.

For “SH-4 (melanoma, adherent, top dose 20 µM)”, the AUC turned out to be 0.942 and the half-inhibitory concentration (IC50) is greater than 20 µM.

“SHP-77 (small cell lung carcinoma, semi-adherent, top dose 20 µM)”: the AUC was 0.942 and the IC50 was greater than 20 µM.

Turning to “SIG-M5 (acute myeloid leukaemia, suspension, top dose 20 µM)”, the AUC is 0.88 and the IC50 was 12.1 µM.

Turning to “SIMA (neuroblastoma, adherent, top dose 20 µM)”, the AUC was 0.947 and the IC50 was greater than 20 µM.

Regarding SISO (cervix, adherent, top dose 20 µM), the AUC was determined as 0.97 and the 50% inhibitory concentration (IC50) was greater than 20 µM.

For “SJRH30 (rhabdomyosarcoma, adherent, top dose 20 µM)”, the AUC turned out to be 0.896 and the IC50 is greater than 20 µM.

For SJSA-1 (bone, adherent, top dose 20 µM), the AUC is 0.964 and the IC50 was greater than 20 µM.

Turning to “SK-CO-1 (large intestine, adherent, top dose 20 µM)”, the AUC is 0.988 and the IC50 was greater than 20 µM.

Regarding “SK-ES-1 (Ewing sarcoma, semi-adherent, top dose 20 µM)”, the AUC worked out at 0.936 and the IC50 was greater than 20 µM.

Turning to “SK-GT-4 (oesophagus, adherent, top dose 20 µM)”, the AUC was determined as 0.972 and the IC50 was greater than 20 µM.

On to “SK-HEP-1 (liver, adherent, top dose 20 µM)”, for which the AUC was determined as 0.968 and the IC50 was greater than 20 µM.

With “SK-LMS-1 (soft tissue, adherent, top dose 20 µM)”, the AUC turned out to be 0.91 and the IC50 was greater than 20 µM.

As to “SK-LU-1 (lung adenocarcinoma, adherent, top dose 20 µM)”, the AUC amounted to 0.959 and the IC50 is greater than 20 µM.

For the cell line “SK-MEL-1 (melanoma, suspension, top dose 20 µM)”, the AUC is 0.958 and the IC50 was greater than 20 µM.

Turning to “SK-MEL-2 (melanoma, adherent, top dose 20 µM)”, the AUC worked out at 0.955 and the IC50 was greater than 20 µM.

Take “SK-MEL-3 (melanoma, adherent, top dose 20 µM)”: the AUC was 0.963 and the IC50 was greater than 20 µM.

Regarding “SK-MEL-5 (melanoma, adherent, top dose 20 µM)”, the AUC came out at 0.938 and the 50% inhibitory concentration (IC50) is greater than 20 µM.

Take “SK-MEL-24 (melanoma, adherent, top dose 20 µM)”: the AUC stood at 0.946 and the IC50 was greater than 20 µM.

For “SK-MEL-28 (melanoma, adherent, top dose 20 µM)”, the AUC was found to be 0.983 and the IC50 is greater than 20 µM.

For the cell line “SK-MEL-30 (melanoma, adherent, top dose 20 µM)”, the AUC was determined as 0.947 and the IC50 was greater than 20 µM.

With “SK-MES-1 (lung squamous cell carcinoma, adherent, top dose 20 µM)”, the AUC was found to be 0.895 and the IC50 was greater than 20 µM.

For the cell line “SK-MG-1 (glioma, adherent, top dose 20 µM)”, the AUC came out at 0.987 and the half-maximal inhibitory concentration (IC50) is greater than 20 µM.

Take “SK-MM-2 (myeloma, suspension, top dose 20 µM)”: the AUC worked out at 0.868 and the IC50 amounted to 19.7 µM.

On to “SK-N-AS (neuroblastoma, adherent, top dose 20 µM)”, for which the AUC was determined as 0.952 and the IC50 was greater than 20 µM.

For “SK-N-DZ (neuroblastoma, adherent, top dose 20 µM)”, the AUC was found to be 0.942 and the IC50 was greater than 20 µM.

Regarding “SK-N-FI (neuroblastoma, adherent, top dose 20 µM)”, the AUC was determined as 0.943 and the IC50 is greater than 20 µM.

For “SK-N-SH (neuroblastoma, adherent, top dose 20 µM)”, the AUC came to 0.948 and the IC50 is greater than 20 µM.

With “SK-OV-3 (ovary, adherent, top dose 20 µM)”, the AUC came out at 0.884 and the IC50 was greater than 20 µM.

Turning to “SK-PN-DW (Ewing sarcoma, adherent, top dose 20 µM)”, the AUC is 0.936 and the 50% inhibitory concentration (IC50) was greater than 20 µM.

As for “SK-UT-1 (soft tissue, adherent, top dose 20 µM)”, the AUC stood at 0.973 and the IC50 was greater than 20 µM.

Take “SKG-IIIa (cervix, adherent, top dose 20 µM)”: the AUC was 0.97 and the IC50 is greater than 20 µM.

Take SKN (uterus, adherent, top dose 20 µM): the AUC amounted to 0.949 and the IC50 is greater than 20 µM.

“SKN-3 (head and neck, adherent, top dose 20 µM)”: the AUC came to 0.983 and the IC50 is greater than 20 µM.

On to “SLVL (B-cell lymphoma, suspension, top dose 20 µM)”, for which the AUC was determined as 0.78 and the IC50 is 8.7 µM.

As to “SN12C (kidney, adherent, top dose 20 µM)”, the AUC stood at 0.944 and the IC50 is greater than 20 µM.

As for “SNB75 (glioma, adherent, top dose 20 µM)”, the AUC amounted to 0.974 and the IC50 was greater than 20 µM.

Take “SNG-M (endometrium, adherent, top dose 20 µM)”: the AUC was determined as 0.918 and the IC50 was greater than 20 µM.
